No constants are given. Whether binding was seen depends on the method and setting.
Tests used:
Assay in all cases: two-hybrid; LexA-septin bait (modified pBTM116) in yeast L40 screened against human fetal brain and human leukocyte cDNA libraries (pACT2); minimal medium without Trp, Leu, His, with 5 mM 3-AT; every clone confirmed one-to-one with its bait by beta-galactosidase filter assay, empty bait vector as control
Conditions in all cases: remark: other sources report otherwise
[1] = biological target: T1, human septin 10 (human), Q9P0V9
T1 chain: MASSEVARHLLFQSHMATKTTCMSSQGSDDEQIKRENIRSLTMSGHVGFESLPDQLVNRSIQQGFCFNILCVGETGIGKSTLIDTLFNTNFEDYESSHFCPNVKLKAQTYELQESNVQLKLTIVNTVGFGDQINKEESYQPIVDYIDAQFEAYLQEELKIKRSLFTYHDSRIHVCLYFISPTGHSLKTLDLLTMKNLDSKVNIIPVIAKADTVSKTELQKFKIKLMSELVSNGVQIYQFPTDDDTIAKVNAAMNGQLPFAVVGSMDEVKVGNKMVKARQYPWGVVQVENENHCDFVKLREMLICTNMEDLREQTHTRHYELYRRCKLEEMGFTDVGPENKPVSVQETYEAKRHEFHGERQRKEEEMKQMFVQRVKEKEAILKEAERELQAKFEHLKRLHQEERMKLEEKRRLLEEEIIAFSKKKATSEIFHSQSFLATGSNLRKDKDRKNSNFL

[2] = biological target: T2, human septin 6 (human), Q14141
T2 chain: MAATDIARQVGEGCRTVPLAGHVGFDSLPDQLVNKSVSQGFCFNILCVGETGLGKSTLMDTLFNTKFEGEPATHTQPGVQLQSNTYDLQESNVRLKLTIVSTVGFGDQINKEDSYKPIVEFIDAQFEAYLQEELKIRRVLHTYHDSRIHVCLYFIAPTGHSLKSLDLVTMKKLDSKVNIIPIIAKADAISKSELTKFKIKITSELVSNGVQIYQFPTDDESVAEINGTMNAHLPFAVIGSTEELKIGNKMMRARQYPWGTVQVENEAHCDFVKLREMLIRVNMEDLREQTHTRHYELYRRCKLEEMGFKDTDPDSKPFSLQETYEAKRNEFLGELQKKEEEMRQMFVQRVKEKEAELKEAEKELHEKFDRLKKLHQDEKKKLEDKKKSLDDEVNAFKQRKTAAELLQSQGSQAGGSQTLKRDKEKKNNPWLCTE

[3] = biological target: T3, human septin 8 (human), Q92599
T3 chain: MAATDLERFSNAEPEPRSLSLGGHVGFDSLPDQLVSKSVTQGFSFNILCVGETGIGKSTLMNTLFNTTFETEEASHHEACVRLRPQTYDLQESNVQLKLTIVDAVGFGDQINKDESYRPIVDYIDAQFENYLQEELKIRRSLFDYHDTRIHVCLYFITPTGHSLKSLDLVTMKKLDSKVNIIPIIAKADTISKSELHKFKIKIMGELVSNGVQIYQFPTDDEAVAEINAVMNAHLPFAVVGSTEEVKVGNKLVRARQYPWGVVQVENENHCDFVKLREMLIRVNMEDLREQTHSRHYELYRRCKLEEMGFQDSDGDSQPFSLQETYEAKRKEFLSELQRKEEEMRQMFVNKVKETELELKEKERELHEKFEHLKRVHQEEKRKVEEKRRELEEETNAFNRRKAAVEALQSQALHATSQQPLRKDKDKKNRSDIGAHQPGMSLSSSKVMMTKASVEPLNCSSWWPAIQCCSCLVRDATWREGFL

binding [1]: no binding
binding [2]: no binding
binding [3]: no binding
B1: human septin 6, Q14141-1 1-434 (protein)
chain: T2 chain
